Source: paper PMC4336329 (PLoS ONE, 2015)
Among all 310,000 compounds or so, about 2,200 (0.71%) showed an effect of 50% or more. The effect is printed as a negative number. The list shows a part of the results.

Target: human ether-à-go-go-related gene (hERG) potassium channel (human, UniProt Q12809)
Experiment: primary screen, population patch clamp on CHO cells stably expressing hERG

human ether-à-go-go-related gene (hERG) potassium channel, sequence (Q12809 whole entry, looked up): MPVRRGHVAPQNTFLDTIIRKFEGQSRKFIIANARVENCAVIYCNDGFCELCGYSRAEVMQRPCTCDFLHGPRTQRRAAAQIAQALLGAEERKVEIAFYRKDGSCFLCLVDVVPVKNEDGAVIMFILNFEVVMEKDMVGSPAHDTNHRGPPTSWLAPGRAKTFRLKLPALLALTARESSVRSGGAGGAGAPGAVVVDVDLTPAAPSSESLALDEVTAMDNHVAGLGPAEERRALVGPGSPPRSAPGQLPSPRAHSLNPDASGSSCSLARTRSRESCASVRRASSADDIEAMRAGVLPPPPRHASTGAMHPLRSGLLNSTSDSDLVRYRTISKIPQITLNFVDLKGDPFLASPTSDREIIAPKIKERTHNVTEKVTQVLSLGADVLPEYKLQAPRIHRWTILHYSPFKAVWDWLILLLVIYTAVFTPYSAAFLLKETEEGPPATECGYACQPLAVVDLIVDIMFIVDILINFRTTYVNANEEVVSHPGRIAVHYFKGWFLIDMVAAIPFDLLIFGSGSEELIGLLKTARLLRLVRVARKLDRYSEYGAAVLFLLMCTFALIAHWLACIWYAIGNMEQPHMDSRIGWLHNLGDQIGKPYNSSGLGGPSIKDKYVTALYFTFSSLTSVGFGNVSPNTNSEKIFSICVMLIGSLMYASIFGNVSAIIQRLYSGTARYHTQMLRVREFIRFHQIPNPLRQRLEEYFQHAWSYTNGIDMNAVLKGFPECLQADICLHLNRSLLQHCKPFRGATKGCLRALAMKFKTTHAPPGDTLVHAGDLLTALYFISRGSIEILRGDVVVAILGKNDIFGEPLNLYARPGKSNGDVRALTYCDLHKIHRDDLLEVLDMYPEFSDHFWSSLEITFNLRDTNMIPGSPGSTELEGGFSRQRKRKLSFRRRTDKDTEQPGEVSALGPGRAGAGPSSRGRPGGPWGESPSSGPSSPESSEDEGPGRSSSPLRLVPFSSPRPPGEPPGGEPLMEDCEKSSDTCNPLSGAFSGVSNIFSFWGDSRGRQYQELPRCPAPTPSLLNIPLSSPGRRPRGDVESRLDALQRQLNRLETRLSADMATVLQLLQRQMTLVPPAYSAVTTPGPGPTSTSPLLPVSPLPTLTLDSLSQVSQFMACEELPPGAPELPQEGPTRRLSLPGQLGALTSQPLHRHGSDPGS

| SMILES | hERG current change (%, negative = inhibition) at 1uM [%] |
| --- | --- |
| COc1ccc(S(=O)(=O)N(C)CC(=O)Nc2ccc3c(c2)OCO3)cc1OC | 5.56 |
| COC(=O)C1CCN(C(=O)COC(=O)c2ccc(=O)n(Cc3ccccc3)n2)CC1 | 14.3 |
| COc1ccc(S(=O)(=O)N(Cc2ccccc2)c2ccccc2C(=O)N2CCOCC2)cc1 | 11.4 |
| Cc1ccc(/C=N/NC(=O)c2cc3c(ccc4ccccc43)o2)cc1[N+](=O)[O-] | -0.662 |
| Nn1c(-c2ccccn2)nnc1-c1ccccn1 | 0.52 |
| Cc1ccc(S(=O)(=O)N2CCN(S(C)(=O)=O)CC2)cc1 | 1.23 |
| Cc1ccc(NC(=O)Cn2ncn3c(cc4ccccc43)c2=O)cc1F | -1.29 |
| CN(C)S(=O)(=O)c1ccc(C(=O)NCc2ccccc2)cc1 | -2.73 |
| CCS(=O)(=O)Nc1ccc(C(=O)NCCSc2ccccc2)cc1 | 8.08 |
| CCC(C)(C)NC(=O)C(c1ccccc1Cl)N(Cc1cccnc1)C(=O)CCC(=O)Nc1cc(C)on1 (stereo not shown) | 14.3 |
| Cn1c(=O)cc(N)n(Cc2ccccc2)c1=O | 14 |
| O=S(=O)(Nc1ccc(Br)cn1)c1ccc(Cl)s1 | 11.8 |
| COc1ccc(NC(=O)CN(C)S(=O)(=O)c2ccc3c(c2)OCCO3)c2ncccc12 | 12.5 |
| CCC(C)NS(=O)(=O)c1ccc(NS(=O)(=O)c2ccc(F)cc2)cc1 (stereo not shown) | 6.33 |
| CCOC(=O)c1c(NC(=O)COC(=O)c2nc(Cl)ccc2Cl)sc(C(=O)N(C)C)c1C | 11.4 |
| CCCCn1c(=O)[nH]c(=O)c2c1nc(COc1ccc(C#N)cc1)n2CCC | -14.8 |
| Cc1ccc(CCNC(=O)C2CCN(c3nn4c(=O)cc(C)nc4s3)CC2)cc1 | 0.535 |
| COc1ccc(-c2ncc3ccccn23)cc1OC.O=C(O)C(=O)O | 3.2 |
| COc1ccc(-c2noc(N3CCC(C(=O)NCc4ccc(F)cc4)CC3)n2)cc1 | 8.94 |
| COc1ccc(N2CCN(c3c(S(=O)(=O)c4ccccc4)cnc4ccc(OC)cc34)CC2)cc1 | 1.01 |
| CS(=O)(=O)N1CCC(C(=O)NNC(=O)Nc2ccc(F)c(Cl)c2)CC1 | -1.87 |
| COc1cc(OC)c(OC)cc1CN1CCN(C(=O)COc2ccc3ccccc3c2)CC1.O=C(O)C(=O)O | -8.83 |

| SMILES | hERG current change (%, negative = inhibition) at 1uM [%] |
| --- | --- |
| CCSc1nnc(N2C(=O)C(O)=C(C(=O)c3ccco3)C2c2cccc(OC)c2)s1 (stereo not shown) | 9.72 |
| CC(=O)c1ccc(N2C(=O)[C@@H]3C(CCC(N)=O)NC4(C(=O)Nc5c4ccc(Cl)c5C)[C@@H]3C2=O)cc1 (stereo partly shown) | 11.1 |
| CCN=C1SC(C(=O)Nc2ccccc2)CC(=O)N1CC (stereo not shown) | 15.6 |
| COC(=O)C[N+](C)(C)CC#Cc1ccccc1.[Br-] | 13.1 |
| O=C(Nc1nnc(CC(=O)N2CCOCC2)s1)C1COc2ccccc2O1 (stereo not shown) | 8.42 |
| COc1ccc(NC(=O)C(C)N(c2ccc(C)cc2)S(C)(=O)=O)cc1 (stereo not shown) | -17.2 |
| COc1ccccc1-n1cc(CN2CCN(C3CCCC3)C(CCO)C2)cn1 (stereo not shown) | 4.57 |
| COC(=O)c1cc2oc(C)cc2n1CC(=O)N1CCCc2ccccc21 | 6.41 |
| C/C(=N\NC(=O)CC(C)C)c1ccc(N2CCCCC2)cc1 | 1.96 |
| O=C(CSc1ccc(Cl)cc1)NC1CCCc2ccccc21 (stereo not shown) | 12.6 |
| O=C(NCc1ccccc1)c1onc(CS(=O)(=O)c2ccccn2)c1C(=O)NCc1ccccc1 | 17.2 |
| CCOC(=O)Nc1sc(NS(=O)(=O)c2ccccc2)nc1C | 8.66 |
| COc1ccccc1NC(=O)c1cc(Cl)ccc1NC(=O)c1ccco1 | 2.57 |
| O=C(O)COc1ccccc1/C=N/NC(=O)c1cc2ccccc2cc1O | 10.6 |
| CCOc1ccsc1C(=O)O | 13.5 |
| O=C(CN1C(=O)/C(=C\c2ccc(C(F)(F)F)cc2)Sc2ccccc21)NCc1ccco1 | 3.02 |
| O=C(COC(=O)c1cc([N+](=O)[O-])ccc1Cl)NC1CCCC1 | 1.22 |
| CC(C)(C(N)=O)c1ccccc1 | 10.7 |
| Cc1ccsc1/C=N/n1c(-c2ccco2)n[nH]c1=S | 15.2 |
| COc1ccccc1CC(=O)Nc1sc2c(c1C(N)=O)CCCC2 | 12 |
| Cc1ccc2c(COC(=O)c3ccc(NC(=O)CC#N)cc3)cc(=O)oc2c1C | 1.59 |
| N/C(=N\OC(=O)c1cc(Cl)ccc1Cl)c1cccnc1 | 8.17 |

| SMILES | hERG current change (%, negative = inhibition) at 1uM [%] |
| --- | --- |
| Cc1sc2nc(CN3CCCC3)nc(NCc3ccncc3)c2c1C | -45.4 |
| S=C(Cc1cccnc1)N1CCOCC1 | 13.4 |
| Cc1cccc(C)c1NC(=O)CN(C)C(=O)c1ccc2nc[nH]c2c1 | 14 |
| CCOC(=O)C1=C(CC)Nc2ccccc2N=C1NC(=O)CCNC(C)=O | -0.999 |
| N/C(=N\c1nc2ccccc2o1)NC(=O)/C=C/c1ccccc1 | 9.02 |
| Cc1ccc(Cn2c(=O)n(-c3ccccc3)c(=O)c3ccc(C(=O)NCc4ccco4)cc32)cc1 | 12.7 |
| CC1CN/C(=C\C(=O)c2ccc(Br)cc2)C(=O)N1 (stereo not shown) | 9.76 |
| Cc1ccc(C(=O)N2Cc3ccccc3CC2C(=O)O)cc1 (stereo not shown) | -0.914 |
| O=c1[nH]cnc(O)c1C(c1ccc(Br)cc1)c1c(O)nc[nH]c1=O | 10 |
| Cc1nn(-c2ccccc2)c(OC(=O)c2cccs2)c1S(=O)(=O)c1ccc([N+](=O)[O-])cc1 | 1.3 |
| O=C(O)c1cccc(N=NN2CCCCCC2)c1 | 8.11 |
| CC(C)(C)c1ccc(C(=O)NN2CCOCC2)cc1 | -18.9 |
| COc1ccc(NC(=S)NCc2cccs2)cc1 | 14 |
| CCOc1ccc(OCC(=O)N2CCOCC2)cc1 | 12.1 |
| O=C(O)c1ccc(N/N=C/C=C/c2ccccc2[N+](=O)[O-])cc1 | 11.8 |
| N#Cc1nc(Cc2ccccc2)oc1N1CCN(c2ccccc2)CC1 | -0.118 |
| O=C(CCCN1C(=O)/C(=C/c2ccccc2)SC1=S)Nc1ccc(O)cc1 | 9.49 |
| O=C(CCc1ccc(Oc2cc([N+](=O)[O-])cc([N+](=O)[O-])c2)cc1)Nc1cccc(Cl)c1 | 8.68 |
| CCN1CCCC1CNS(=O)(=O)c1ccc(Cl)c(C(F)(F)F)c1 (stereo not shown) | 4.02 |
| CCOC(=O)C1CCCCN1Cc1cc(OC)ccc1OC (stereo not shown) | -0.101 |
| O=C(Nc1ccc(NC(=O)C2CC2)cn1)c1ccccc1Cl | 5.88 |
| O=C(Oc1ccc(Cl)c2cccnc12)N1CCCCC1 | 17.9 |

| SMILES | hERG current change (%, negative = inhibition) at 1uM [%] |
| --- | --- |
| CCc1ccccc1NC(=O)C(C#N)Cc1cccnc1 (stereo not shown) | 0.258 |
| O=C(OCc1ccccc1F)c1cnc(Cl)c(Cl)c1 | 9.35 |
| CC(C(=O)NC1CCCCCC1)N(c1ccccc1)S(C)(=O)=O (stereo not shown) | 11.2 |
| CCCC(=O)N/C(N)=N/c1nc2ccccc2o1 | 11.1 |
| O=C(Nc1ccc(N2CCCC2)c(Cl)c1)c1ccccc1[N+](=O)[O-] | 13.1 |
| O=C(O)c1ccc2c(=O)n3cc(C(=O)c4ccccc4O)cc(Cl)c3nc2c1 | 4.58 |
| CC(C)(C)c1ccc(C(=O)NCCN2CCOCC2)cc1 | 5.39 |
| CON(C)S(=O)(=O)NC(=O)C1=C(N2CCCC2)COC1=O | 17.3 |
| CC1CCCC(C)N1C(=O)COC(=O)c1cc(-c2cccs2)nn1-c1ccccc1 (stereo not shown) | 15.1 |
| Cc1ccc(-n2nc3c(c2NC(=O)CC(C)C)CS(=O)(=O)C3)cc1 | 10.4 |
| CNc1c(NS(=O)(=O)c2ccc(CC(C)C)cc2)c(=O)oc2ccccc12 | 11.7 |
| CC1CC(C)CN(CCCNC(=O)c2ccc(N3CCCC3=O)cc2)C1 (stereo not shown) | 18.4 |
| O=C(c1n[nH]c2ccccc12)N1CCN(S(=O)(=O)c2ccc(Cl)cc2)CC1 | 4.22 |
| CCCOC1CCCN(C(=O)c2ccc3oc(C(C)C)nc3c2)C1 (stereo not shown) | 10.6 |
| O=C(NCc1ccco1)C(c1ccccc1F)N(CC1CCCO1)C(=O)Cn1nnc2ccccc21 (stereo not shown) | -10.2 |
| O=C(C1CCN(S(=O)(=O)c2cccnc2)CC1)N1CCN(C2CCCC2)CC1 | 12.2 |
| Oc1ccccc1O | 13.9 |
| CC1CC(C)(C)NC(=S)N1CC(=O)NCc1ccccc1Cl (stereo not shown) | 13.9 |
| COCC(=O)Nc1nnc(Cc2ccc(OC)c(OC)c2)s1 | -6.83 |
| COc1ccc(OC)c(C2C(C(=O)Nc3ccccc3OC)=C(C)Nc3nc(CCCO)nn32)c1 (stereo not shown) | 11.7 |
| COc1cc(C(C)=O)ccc1COc1ccc(C(=O)OCC(=O)NC(C)(C)C)cc1OC | 7.58 |
| COc1cc(-c2cc(C(=O)Nc3ccc(S(=O)(=O)Nc4ncccn4)cc3)c3ccccc3n2)cc(OC)c1OC | 6.71 |
